Assay results taken from publication PMC12136788.
Where a chain is given by its changes, count along the chain named. This is one part of the list.

T1: UNK ZnF1-3 (human, UniProt Q9C0B0 31-174)
T1 sequence: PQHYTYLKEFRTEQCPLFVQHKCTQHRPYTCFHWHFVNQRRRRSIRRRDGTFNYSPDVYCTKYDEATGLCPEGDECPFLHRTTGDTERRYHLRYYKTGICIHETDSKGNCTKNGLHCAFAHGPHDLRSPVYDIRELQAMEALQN

B1: chr1:39494447:39494448:+_ENSG00000168653_ENST00000372967|hu_mus|hu_hu_hu_mus_False|78_98 (ssRNA)
RNA: GGGAGUUCUACAGUCCGACGAUCGCACCGAGCGGCGAUCUUGUAGGGCUGUUCUGCACUCUGGAUUAUAAAGUGCCGGUCCAGGCUGAUGCCCAGCUUUUUCUGUAUGUCAAGGAAAGGCAUGGCUCUGCAGUGCCCUUGUCACAACAGAGGAUUGAGCAUCA
B2: chr18:52893488:52893489:-_ENSG00000196628_ENST00000354452|hu_hu|hu_hu_hu_mus_True|1_1 (ssRNA)
RNA: GGGAGUUCUACAGUCCGACGAUCUAUUUAGACCAUUUCCGCGGAGUUAUGGCAUUUACUCAGUGCUGAUAGGUGGAAAAACUACUUCAACAGGGAUUUUUUUUUUCCUUAAUACAUGCCAAGAUUGUGUGGCUGUCAAAAAUACAACAGAGGAUUGAGCAUCA
B3: chr2:183789671:183789672:-_ENSG00000061676_ENST00000360982|hu_mus|motif|central (ssRNA)
RNA: GGGAGUUCUACAGUCCGACGAUCUUAUGGCAGGUACACUUGAAUUUCAAAUGUUAAAACAUAUAAAAAGUGAUUCGGGACGGCCAUCUGUAUCAACAGUUGCCAAGUGUCUGGUUGUUUAUUAUACAGCAGGGUAAAGGCAGUCAACAGAGGAUUGAGCAUCA
B4: chr11:4127340:4127341:+_ENSG00000167325_ENST00000300738|hu_mus|hu_hu_hu_mus_False|68_68 (ssRNA)
RNA: GGGAGUUCUACAGUCCGACGAUCGGCAUAGUCAGGGUGCUUCGUGGUCAAGGUCGCGGCUGUCUCAGCAGCCAAAGUGUCCAGUUCCACUGUGGUGACCCCACUAUAUAGGCCUUGGAUUACUUUCAUGGUGAUCUGAGCAGGCAACAGAGGAUUGAGCAUCA
B5: chr3:9412954:9412955:+_ENSG00000134077_ENST00000452837|hu_hu|motif|central (ssRNA)
RNA: GGGAGUUCUACAGUCCGACGAUCUGUUGAUACAUCCUCUUUGAUGGCUGGAUUUUCAUAAUAAUCUAAGAUAUGAGAAUCGGAAGCAUGGCUAGUGAACUCUUUUUUAACAUUUCUCUGAUCGAUUUUGACUUCUUGUCCAUUCAACAGAGGAUUGAGCAUCA
B6: chr5:34943985:34943986:+_ENSMUSG00000029106_ENSMUST00000114338|mus_mus|FALSE|FALSE (ssRNA)
RNA: GGGAGUUCUACAGUCCGACGAUCGUGGUUGGAGGUGGUGAGGUCACCACUGCGGCCCGAGUGUCACCAUUCAUUGCACAAUUUUCCUAGGGUCCUCCGCGGAGAAUCGGGGAGAGAGCACGGCUUCCCGGGUCCGAGUGCGGCCAACAGAGGAUUGAGCAUCA
B7: 150445528_150445648_4168_CDS_ENSG00000163125_ENST00000369068|human|control|control (ssRNA)
RNA: GGGAGUUCUACAGUCCGACGAUCGCUGAUGGUGUCUCUGUGUGAGGGACCCAAGGGGGGGCCACUGCUGCUGUUGCUGCCUCCCCCACCUCCUCCUCCAUGGGGUGGGCCCAGGUGUUCCAGAGAAUGGGAGGGUAGGGUGAGCAACAGAGGAUUGAGCAUCA
B8: chr12:105536279:105536280:+_ENSG00000136051_ENST00000332180|hu_mus|hu_hu_hu_mus_True|18_78 (ssRNA)
RNA: GGGAGUUCUACAGUCCGACGAUCAGCACUGAACAUGUAAUGUAAUCUGGCUGCAUCAACAGCAUUUUCAUAUACAUCAUCUAAAUAAAUCGGGAAGACAGCGCGAUGCCAGUAUAAAAAACAACAGUCACACUGUGCUUGGACCAACAGAGGAUUGAGCAUCA
B9: chr17:64801638:64801639:+_ENSG00000154229_ENST00000413366|hu_mus|hu_hu_hu_mus_False|28_78 (ssRNA)
RNA: GGGAGUUCUACAGUCCGACGAUCUAUAUAUAUAUAUACAUAUGUACACAUAUAUAGUAAGAGCCUAGUUAAACGUGUAAAGUAGCCAUUCAUUUUUAAAAUUACAUCUACAUUUAAAAAUUAAUAUAUCUGAUAGAGUGCCAGCAACAGAGGAUUGAGCAUCA
B10: chr10:126492284:126492285:-_ENSMUSG00000040502_ENSMUST00000040307|mus_hu|FALSE|FALSE (ssRNA)
RNA: GGGAGUUCUACAGUCCGACGAUCAAAGUGCCCAGGCUUCAGGCUGACCCACAUUGUAAACAGUCCUUCCCAAAUCUUUUCUCUAUAAACAACAGUCCUCUAUGCUGCUGCCUCCAAACAUAAUGCCAUCCAUUAAUACCACUGCAACAGAGGAUUGAGCAUCA
B11: chr8:117878989:117878990:-_ENSG00000164754_ENST00000297338|hu_hu|hu_hu_hu_mus_True|28_58 (ssRNA)
RNA: GGGAGUUCUACAGUCCGACGAUCCCAGAGGCCCUCGUUUACUGAGGACAAAAUGUGCGUAGAACAUUUUUCUUAUUGGCUAUGAAAUAAGAAGAAACCUGGAUCUCCCGCUGGGAGCGGGAGGGGUGGGUGGCCCGGGGAGGGCAACAGAGGAUUGAGCAUCA
B12: 34387834_34398913_243_CDS_ENSG00000134779_ENST00000590842|human|control|control (ssRNA)
RNA: GGGAGUUCUACAGUCCGACGAUCGUGGAAGCCAUUGGUCAUCAGGUAAAAGUUCUUCACAUCUUCAGGCAUCACACAGUUAUUCUUUUGUUCCCAGGAAGAAAUCAUAUGACGUUCAGCAGGAGGCUUUUCUAUGAUGGUCACCAACAGAGGAUUGAGCAUCA
B13: chr11:61589858:61589859:-_ENSMUSG00000004798_ENSMUST00000004920|mus_mus|motif|central (ssRNA)
RNA: GGGAGUUCUACAGUCCGACGAUCCUAUUUUGAAGAUAAUGCAGUUACAAAUGAGAGGUAGAAACACUGUAGUAAAGACCGGAGAAUACAAACAUCCUAUACAUAAACGUUCAAAUUAACUGCUGGAAUUUCAUACAGAUAAAUCAACAGAGGAUUGAGCAUCA
B14: chr17:74891714:74891715:+_ENSMUSG00000024072_ENSMUST00000024873|mus_mus|FALSE|FALSE (ssRNA)
RNA: GGGAGUUCUACAGUCCGACGAUCAGAUUCUUUGAUGAAAUCUCCGCUUACACCGAGGUUUAAUUUGACAUCUGGAGCUGCUAUAGAACCGCUGAGAUCUUCCGCGUCCGCCGAAGACACAAAGGUGAAGUCCCCGUUGGCAGGCAACAGAGGAUUGAGCAUCA
B15: chr8:117878989:117878990:-_ENSG00000164754_ENST00000297338|hu_hu|hu_hu_hu_mus_True|28_48 (ssRNA)
RNA: B11 RNA with G77U, U87A, A88C
B16: chr18:78020638:78020639:+_ENSMUSG00000025428_ENSMUST00000026495|mus_mus|FALSE|FALSE (ssRNA)
RNA: GGGAGUUCUACAGUCCGACGAUCAUCAGACCUGAUAUUGCCCAAGAGGGACUGGUGCUGGCUGAUAACGUGAGACAAGAAAGCAUUCUCAAACUUUGUGAUCUUGCUGGGCUCCAGUUUGUCAAGAUAACCCCGUACACCCGCCAACAGAGGAUUGAGCAUCA
B17: chr8:101931661:101931662:-_ENSG00000164924_ENST00000353245|hu_hu|motif|central (ssRNA)
RNA: GGGAGUUCUACAGUCCGACGAUCUAAGUUAGAAAAUGCCAUAUGCCAAAAUUUUAAAUGGAACACACUACAUUUUUUUCGGAUCAAUCCCCCCCUCUCCCAGAAAAAAUAGGAACUCAUUUUUUUCAGGGUGGGGAGGAAGAGCAACAGAGGAUUGAGCAUCA
B18: 86668350_86670814_942_3pUTR_ENSMUSG00000034290_ENSMUST00000040992|mouse|control|control (ssRNA)
RNA: GGGAGUUCUACAGUCCGACGAUCUGCGUGUACCAACUGGAUCAGUUCCAAAGAAUACUGACUCGAGUCAACUUCCAUGGCCCGGAUUCCCUGCACGAUCUUCACACAUAGGUUGAGUGGGUUUGUAGCAUCAAAUGUUCUUUUCAACAGAGGAUUGAGCAUCA
B19: chr16:87731977:87731978:+_ENSMUSG00000025612_ENSMUST00000026703|mus_hu|motif|central (ssRNA)
RNA: GGGAGUUCUACAGUCCGACGAUCUGGGAUGCACUAUCAGAAUUAUUCUCCCUGACAAAUUCUUGAGUGUACUUAUAAAAGCGGCGGGAAAAUAAACAAGUCCAACUAAUUUUCUCUUACAAAUAAGUCAGUGACAGAGAGAACCAACAGAGGAUUGAGCAUCA
B20: chr2:242276830:242276831:+_ENSG00000168385_ENST00000391971|hu_hu|motif|central (ssRNA)
RNA: GGGAGUUCUACAGUCCGACGAUCUAAGGGCUUAAGUCCAUGUCCAAAAGGUGAAAUAAAGUAAAAGCAACAAUGCACCCGGUUAUCAAUGAUGUGCCGCCUGUUCAAGCCGCUCUCGUCAUGCAGGUACCUCUCAAAUUGCUCCAACAGAGGAUUGAGCAUCA
B21: chr5:31261203:31261204:-_ENSMUSG00000045302_ENSMUST00000088063|mus_hu|motif|central (ssRNA)
RNA: GGGAGUUCUACAGUCCGACGAUCGAAGCACACAACUUUCUGCAGUGGAUCGGAGCUAAAGUCUGUCUGCACCGCCUGCAAAUUCUCGGCCCUGAGUUCUAGCCCCUCGUGCUGGGUUUCCGCUCCACAUUUCUUCUCUGCUGGCAACAGAGGAUUGAGCAUCA
B22: chr2:9570881:9570882:+_ENSG00000119203_ENST00000238112|hu_mus|hu_hu_hu_mus_False|58_88 (ssRNA)
RNA: GGGAGUUCUACAGUCCGACGAUCACUUGUCUUCUGAAGGAACCAGGGCAGAGCUCCACAGUGAUCCAAAUGGAAAUGACUAAUUAACAGAAGGUCGAUCUCAGCUGGGUCGAUAAGGUCAAUGUAAGGAAGGGCAUCCAUUCCCAACAGAGGAUUGAGCAUCA

target: T1, UNK ZnF1-3; experiment: nsRBNS (natural sequence RNA bind-n-seq); RBNS binding buffer (assumed for nsRBNS): 25 mM Tris pH 7.5, 150 mM KCl, 3 mM MgCl2, 0.01% Triton X-100, 500 ug/ml BSA, 20 U/ml SUPERase-In, 4 C; UNK is unkempt and MSI1 is Musashi-1; names of the RNAs are library labels; protein concentration not given here; high values mean tight binding

Q: B1 was tested. Which binding signal did it give?
A: Its binding signal is 0.551 enrichment R.

Q: Which binding signal does the source give for B2 here?
A: Its binding signal is 1.1 enrichment R.

Q: For B3, which binding signal is on record?
A: Its binding signal is 0.93 enrichment R.

Q: With B4 as the binder, how does the binding signal read?
A: Its binding signal is 0.975 enrichment R.

Q: For B5, which binding signal is on record?
A: The binding signal was 0.605 enrichment R.

Q: B6 was tested. Which binding signal did it give?
A: Its binding signal is 1.49 enrichment R.

Q: For B7, which binding signal is on record?
A: The binding signal was 0.975 enrichment R.

Q: B8 was tested. Which binding signal did it give?
A: Its binding signal is 2.59 enrichment R.

Q: How did the binding signal turn out when B9 was run?
A: The binding signal was 1.79 enrichment R.

Q: B10 was tested. Which binding signal did it give?
A: The binding signal was 1.49 enrichment R.

Q: How did the binding signal turn out when B11 was run?
A: The binding signal was 1.37 enrichment R.

Q: How did the binding signal turn out when B12 was run?
A: Its binding signal is 1.34 enrichment R.

Q: B13 was tested. Which binding signal did it give?
A: The binding signal was 1.92 enrichment R.

Q: With B14 as the binder, how does the binding signal read?
A: The binding signal was 0.853 enrichment R.

Q: How did the binding signal turn out when B15 was run?
A: The binding signal was 1.39 enrichment R.

Q: With B16 as the binder, how does the binding signal read?
A: Its binding signal is 1.54 enrichment R.

Q: B17 was tested. Which binding signal did it give?
A: The binding signal was 0.613 enrichment R.

Q: With B18 as the binder, how does the binding signal read?
A: The binding signal was 1.17 enrichment R.

Q: B19 was tested. Which binding signal did it give?
A: Its binding signal is 0.614 enrichment R.

Q: How did the binding signal turn out when B20 was run?
A: The binding signal was 0.982 enrichment R.

Q: For B21, which binding signal is on record?
A: The binding signal was 1.11 enrichment R.

Q: B22 was tested. Which binding signal did it give?
A: The binding signal was 1.4 enrichment R.
